{
  "source": "PubChem BioAssay AID686979",
  "about": "(National Center for Advancing Translational Sciences (NCATS), 2013)",
  "note": "Where “and” joins values, the source holds several entries; their conditions need not be identical. Identical values can stand only once. The whole screen tested about 420,000 compounds, of which about 50,000 (12%) were called active. Inconclusive means that the source gave no clear call. Such entries were picked first, then a sample of the others. Calls come from the whole dose curve; as a rule, active = well fitted inhibition curve with a large enough effect; inconclusive = small, poorly fitted or top-dose-only effect; inactive = flat fitted curve, though single readings scatter. A potency beside an inconclusive call is a rough fit, not a confirmed value. % is set by controls: 0 for no effect and ±100 for the full control effect; potency is the fitted concentration of half-maximal effect; tags give direction and shape of the fitted curve.",
  "data": [
    {"assay": "qHTS for Inhibitors of human tyrosyl-DNA phosphodiesterase 1 (TDP1): qHTS in cells in presence of CPT; note: nearly all actives have a fitted effect of over 55% in size", "details": "chicken DT40 Tdp1-/-;hTDP1 cells + 20 nM CPT, ATP luminescence, 48 h; activity change, negative = growth inhibition: at 46.2 µM (top of the series) unless noted", "summary_of_the_method": "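Chicken DT40 Tdp1-/- cells stably complemented with human TDP1 were seeded at 400 cells/well in medium containing 20 nM camptothecin, exposed to pin-transferred compounds, and grown at 37 °C for at least 48 hr. Viability was read as ATP luminescence.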", "values": [
      {"smiles": "COc1ccc(NC(=S)Nc2ccc3nc(C)c(C)nc3c2)cc1", "Potency": "inactive"},
      {"smiles": "CN(C(=O)c1cccc(NC(=O)Cc2ccc(NC(=O)C3CCN(C(=O)C4CCCCC4)CC3)cc2)c1)C1CCCCC1", "Potency": "inconclusive: 29.1 µM [inhibitor, single point]"},
      {"smiles": "Cc1cc(C)cc(NC(=O)c2ccc3c(O)c(S(=O)(=O)c4ccccc4)c(=O)[nH]c3c2)c1", "Potency": "inactive"},
      {"smiles": "CCOC(=O)c1c(C)[nH]c(C(=O)CN(C)CC(=O)Nc2ccccc2Cl)c1C", "Potency": "inconclusive: 29.1 µM [inhibitor, single point]"},
      {"smiles": "Cc1[nH]c2ccccc2c1C(=O)C(=O)N1CCCc2ccccc21", "Potency": "inconclusive: 29.1 µM [inhibitor, single point]"},
      {"smiles": "Cc1ccc(OCC(=O)N(Cc2ccco2)c2ccccn2)cc1", "Potency": "inconclusive: 29.1 µM [inhibitor, single point]"},
      {"smiles": "CCOC(=O)c1c(C)[nH]c(C)c1S(=O)(=O)N1CCCC(C(=O)Nc2ccc(C)c(N(C)C)c2)C1", "note": "(stereo not drawn)", "Potency": "inconclusive: 29.1 µM [inhibitor, single point]"},
      {"smiles": "CC1CCCCN1CC(O)COCCC12CC3CC(CC(C3)C1)C2", "note": "(stereo not drawn)", "Potency": "active: 14.6 µM"},
      {"smiles": "CCC(=O)Nc1ccccc1-c1nnn(CC(=O)N2c3ccccc3CC2C)n1", "note": "(stereo not drawn)", "Potency": "inconclusive: 16.4 µM [inhibitor, partial curve, poor fit]"},
      {"smiles": "CCNC(=S)NNC(=O)c1ccc(S(=O)(=O)NCc2ccco2)cc1", "Potency": "inconclusive: 32.6 µM [inhibitor, partial curve, poor fit]"},
      {"smiles": "COc1cccc(C(O)c2nc(-c3cc4ccccc4o3)cs2)c1", "note": "(stereo not drawn)", "Potency": "inconclusive: 29.1 µM [inhibitor, single point]"},
      {"smiles": "COc1ccc(S(=O)(=O)NCc2csc(C)n2)cc1", "Potency": "inactive"},
      {"smiles": "O=C(c1ccc(Cl)c(S(=O)(=O)N2CCOCC2)c1)N1CCN(c2ccccc2F)CC1", "Potency": "inconclusive: 18.4 µM [inhibitor, single point]"},
      {"smiles": "COC(=O)c1ccccc1NC(=O)C1(c2cccs2)CCOCC1", "Potency": "inconclusive: 14.6 µM [inhibitor, partial curve]"},
      {"smiles": "C[C@@H]1CN([C@H](C)CO)S(=O)(=O)c2ccc(-c3ccc(C#N)cc3)cc2O[C@H]1CN(C)C(=O)Nc1cc(F)ccc1F", "Potency": "active: 6.51 µM"},
      {"smiles": "CCCCOC(=O)c1ccc(NC(=O)Cc2coc3c(C)c(C)ccc23)cc1", "Potency": "inconclusive: 23.1 µM [inhibitor, single point]"},
      {"smiles": "COc1ccc(-c2noc(CCC(=O)N3CCN(c4ccccc4OC)CC3)n2)cc1", "Potency": "inconclusive: 25.9 µM [inhibitor, single point]"},
      {"smiles": "COc1ccc(C2NC(=O)NC(C)=C2C(=O)OCc2ccc3c(c2)OCO3)cc1OC", "note": "(stereo not drawn)", "Potency": "inconclusive: 31.6 µM [inhibitor, single point]"},
      {"smiles": "CCCCCCN1C[C@@H](n2cc(C3CC3)nn2)[C@H](O)C[C@@H]1c1ccc(Cl)cc1", "Potency": "inconclusive: 29.1 µM [inhibitor, partial curve, poor fit]"},
      {"smiles": "Cc1cccc(CNC(=O)CN2C(=O)C3CCCCN3c3ccc(C(=O)N4CCCC4)cc32)c1", "note": "(stereo not drawn)", "Potency": "inconclusive: 29.1 µM [inhibitor, single point]"},
      {"smiles": "COc1ccc(OC)c(NC(=O)c2sc3nc(Cc4ccccc4)cc(C(F)(F)F)c3c2N)c1", "Potency": "inconclusive: 25.1 µM [inhibitor, single point]"},
      {"smiles": "COc1ccc(F)cc1C(=O)C1CCCN(C(=O)c2ccc(C(C)=O)s2)C1", "note": "(stereo not drawn)", "Potency": "inconclusive: 7.31 µM [inhibitor, partial curve]"},
      {"smiles": "CS(=O)(=O)N1CCC2(CC1)CN(c1ccc(-c3ccccc3)cc1)C2", "Potency": "inconclusive: 11.6 µM [inhibitor, partial curve, poor fit]"},
      {"smiles": "O=C(c1cc2sccc2n1Cc1ccccc1)N1CCN(c2nc3ccccc3s2)CC1", "Potency": "active: 14.6 µM"},
      {"smiles": "CC[C@]1(c2ccccc2OC)C(=O)N(C(=O)OC)N1C(=O)OC", "Potency": "active: 20.6 µM"},
      {"smiles": "COc1ccc(Cl)cc1N(CC(=O)N(C)C)S(=O)(=O)c1ccc(C)c([N+](=O)[O-])c1", "Potency": "inconclusive: 18.4 µM [inhibitor, single point]"},
      {"smiles": "Cc1ccc(C(=O)N2CCN(c3ccc(F)cc3)CC2)cc1NC(=O)c1nsc2ccccc12", "Potency": "active: 16.4 µM"},
      {"smiles": "COc1ccc(S(=O)(=O)N2CCOCC2)cc1NC(=O)[C@@H]1CCCN1C(=O)c1cccs1", "Potency": "inactive"},
      {"smiles": "COc1ccc(CCNC(=O)NC23CC4CC(CC(C4)C2)C3)cc1OC", "Potency": "inconclusive: 16.4 µM [inhibitor, single point]"},
      {"smiles": "CCCOC1CCCN(Cc2nc(-c3ccc(C(=O)OC)cc3)no2)C1", "note": "(stereo not drawn)", "Potency": "inconclusive: 29.1 µM [inhibitor, single point]"},
      {"smiles": "Cc1ccccc1OCCC(=O)OCC(=O)c1c(N)n(CC(C)C)c(=O)n(C)c1=O", "Potency": "inconclusive: 29.1 µM [inhibitor, single point]"},
      {"smiles": "CN1C(=O)/C(=N/OC(=O)c2ccccc2)c2ccccc21", "Potency": "active: 7.31 µM"},
      {"smiles": "O=C(CNC(=O)C1COc2ccccc2O1)N/N=C/c1ccc(O)cc1O", "note": "(stereo not drawn)", "Potency": "active: 6.51 µM"},
      {"smiles": "O=C(Nc1ccc([N+](=O)[O-])cc1)Nc1nc(-c2ccc(Cl)s2)cs1", "Potency": "active: 4.61 µM"},
      {"smiles": "COc1cc(NS(=O)(=O)c2ccc(NC(=S)NC(=O)/C=C/c3ccc(OC)c(OC)c3)cc2)ncn1", "Potency": "inconclusive: 25.9 µM [inhibitor, single point]"},
      {"smiles": "COc1ccc(CCNS(=O)(=O)c2ccc(F)c(C(=O)Nc3ccc(Cl)cc3)c2)cc1OC", "Potency": "active: 29.1 µM"},
      {"smiles": "Cc1ccc(O)c(/C=N/NC(=O)COc2ccc3c(C)cc(=O)oc3c2)c1", "Potency": "active: 20.6 µM"},
      {"smiles": "OC(c1cc(Cl)cc(Cl)c1)c1ncc(-c2cccc(F)c2)[nH]1", "note": "(stereo not drawn)", "Potency": "inconclusive: 20.6 µM [inhibitor, single point]"},
      {"smiles": "OC(COc1ccc2c(c1)CCC2)Cn1cnc2ccccc21", "note": "(stereo not drawn)", "Potency": "active: 10.3 µM"},
      {"smiles": "Cc1ccc(-c2nnc(Nc3ccc(Cl)c(Cl)c3)c3ccccc23)cc1S(=O)(=O)N(C)C", "Potency": "inconclusive: 5.8 µM [inhibitor, partial curve]"},
      {"smiles": "C/C=C/c1ccc(OCCCCN2CC(C)CC(C)C2)c(OC)c1", "note": "(stereo not drawn)", "Potency": "inconclusive: 18.4 µM [inhibitor, single point]"},
      {"smiles": "COc1ccc(N(CC(=O)NC2CCCCCC2)S(=O)(=O)c2ccccc2)cc1Cl", "Potency": "inconclusive: 29.1 µM [inhibitor, single point]"},
      {"smiles": "O=C(Nc1ccccc1C(=O)NCCCN1CCOCC1)c1ccc(Cl)cc1", "Potency": "inactive"},
      {"smiles": "O=C1C=C(c2ccccc2)C(=O)N1Nc1ccccc1", "Potency": "active: 4.11 µM"},
      {"smiles": "Cc1ccc(NC(=O)c2ccco2)cc1", "Potency": "inactive"},
      {"smiles": "N#CCCn1cc(C(=O)Nc2ccc(C(=O)O)cc2)c(-c2cccc(Br)c2)n1", "Potency": "inactive"},
      {"smiles": "O=C(Nc1ccccc1)O/N=C(\\c1ccccc1)c1ccccn1", "Potency": "inactive"},
      {"smiles": "O=C(COC(=O)/C=C/c1ccc(OC(F)F)cc1)NC1CCCC1", "Potency": "inactive"},
      {"smiles": "Nc1ccc(/C=C/c2ccc3ncccc3c2)cc1", "Potency": "inconclusive: 10 µM [inhibitor, partial curve] and inconclusive: 18.4 µM [inhibitor, single point]"},
      {"smiles": "O=C(Nc1ccccc1N1CCCCC1)c1cccc(Cl)c1", "Potency": "inconclusive: 25.9 µM [inhibitor, single point]"},
      {"smiles": "Cc1ccc2nc(N3C(=O)C(O)=C(C(=O)c4ccc(C)o4)C3c3cccc(O)c3)sc2c1", "note": "(stereo not drawn)", "Potency": "inactive"},
      {"smiles": "O=C(N/N=C/c1ccc(OC(F)F)cc1)c1ccc(CSc2nc3ccccc3[nH]2)cc1", "Potency": "inconclusive: 20.6 µM [inhibitor, single point]"},
      {"smiles": "Cc1ccc(C(=O)N2CCC(C)CC2)cc1NC1=NC2CS(=O)(=O)CC2S1", "note": "(stereo not drawn)", "Potency": "inactive"},
      {"smiles": "CC(=O)N/C(=C\\c1ccc(F)cc1)C(=O)OC(C)C", "Potency": "inactive"},
      {"smiles": "Cn1c(N)c(C(=O)COC(=O)c2cc(C(F)(F)F)nc3ccccc23)c(=O)n(Cc2ccccc2)c1=O", "Potency": "active: 23.1 µM"},
      {"smiles": "CC(=O)c1cccc(NC(=O)Cn2c(=O)oc3cc(S(=O)(=O)NC4CCCC4)ccc32)c1", "Potency": "inconclusive: 25.9 µM [inhibitor, single point]"},
      {"smiles": "CC(=O)c1ccc(Nc2nc3ccccc3nc2-n2nc(C)cc2C)cc1", "Potency": "inactive"},
      {"smiles": "CCOC(=O)C1(CC2CC2)CCN(Cc2cnc(-c3ccc(OC)cc3)nc2)CC1", "Potency": "inconclusive: 29.1 µM [inhibitor, single point]"},
      {"smiles": "COc1ccccc1-c1noc(-c2ccccc2C(=O)Nc2cccnc2)n1", "Potency": "inconclusive: 16.4 µM [inhibitor, single point]"},
      {"smiles": "COCCn1nnnc1CN(Cc1ccco1)Cc1cc2cc3c(cc2[nH]c1=O)OCO3", "activity change, negative = growth inhibition": "inconclusive: -31.3% [inhibitor]"},
      {"smiles": "COc1cccc(Cn2c(=O)c(-c3cccs3)nc3cnc(N4CCN(C)CC4)nc32)c1", "Potency": "inactive"},
      {"smiles": "O=c1c2ccccc2nnn1CCc1ccccc1", "Potency": "inactive"},
      {"smiles": "CCc1nc2c(OCC(=O)c3ccc(F)cc3)cccn2c1N(C)C(=O)c1ccccc1F", "Potency": "inconclusive: 14.6 µM [inhibitor, single point]"},
      {"smiles": "Cn1c(N2CCOCC2)c(/C=N/OC(=O)c2cccnc2Cl)c2ccccc21", "Potency": "inconclusive: 29.1 µM [inhibitor, single point]"},
      {"smiles": "COc1ccc(NS(=O)(=O)c2ccc(NC(=S)NC(=O)CC(C)C)cc2)cc1", "Potency": "inconclusive: 20.6 µM [inhibitor, single point]"},
      {"smiles": "COc1ccc(CCN2CN(S(=O)(=O)c3ccc(C)cc3)c3nc4ccccc4nc32)cc1OC", "Potency": "active: 23.1 µM"},
      {"smiles": "Cc1nc(-n2nc(C)c(Cc3ccc(Cl)cc3)c2C)sc1C(=O)N1CCCCC1C", "note": "(stereo not drawn)", "Potency": "inactive"},
      {"smiles": "C=CCNC(=S)NNC(=O)c1ccc(OCC(C)C)cc1", "Potency": "inconclusive: 23.1 µM [inhibitor, partial curve]"}
    ]}
  ]
}
